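Assay format: 96-well plates, 48-hour exposure. Abbreviation: GI50, concentration required for 50% inhibition of growth.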 The source made the active and inactive calls. No stated cut-off is given here; in the data, active = GI50 up to about 1.1 µM and inactive = higher.
Test system: NCI-H322M
Experiment: inhibition of tumour cell growth, NCI panel, 48 h

Structure (SMILES) | GI50
C=C1C(=O)O[C@H]2C/C(C)=C/CC[C@]3(C)CCC[C@](C)(CC[C@@H]12)O3 | inactive: > 50 µM
CCN1c2cc(Br)cc3[nH]c(=O)n(c23)CCC1C (configuration not stated) | inactive: 18.5 µM
C=C[C@]1(C)CC(=O)C(C(C)C=O)[C@]12C(=O)Oc1cccc(C)c1C2=O (some centres not stated) | inactive: 18.7 µM
CCCCCCN(CCCCCC)CCC(=O)c1ccc2cc(Br)c3ccccc3c2c1 | inactive: > 100 µM
CCCNc1ncnc2c1ncn2C | inactive: > 100 µM
CC(C)OP(=O)(OC(C)C)c1ncn(-c2ccc([N+](=O)[O-])cc2)n1 | inactive: > 100 µM
Cc1nc(-n2nc(-c3ccccc3)cc2-c2ccccc2)sc1C(=O)CC(=O)C(=O)Nc1ccc(O)cc1 | inactive: > 100 µM
C=CCOCCCCC(C(C)=O)C(=O)OC (configuration not stated) | inactive: > 100 µM
CC(=O)N/C=C/c1cc(O)ccc1O | inactive: > 90.2 µM
O=C1C=C2CC[C@H]3[C@@H]4CC[C@H](OC(=O)c5cccc6cc7ccccc7nc56)[C@H]4CC[C@@H]3[C@H]2CC1 | inactive: > 100 µM
CSc1c(C#N)c(N)nc2c(/N=N\c3ccc(Cl)cc3)c(N)nn12 | inactive: 5.43 µM
COc1ccc2c3c(c(C(=O)O)oc13)C(CCC(=O)O)CC2 (configuration not stated) | inactive: > 100 µM
CCOC(=O)/C=C(/C=C\COC1CCCCO1)c1ccccc1 (configuration not stated) | inactive: 67.1 µM
COc1cccc(OC)c1/C=N\N1C(=O)c2ccccc2C1=O | inactive: > 100 µM
NC(=O)OCC(COc1ccc(Cl)cc1)OC(=O)c1cc([N+](=O)[O-])cc([N+](=O)[O-])c1 (configuration not stated) | inactive: > 100 µM
CCCc1c(OC)c(=O)c2c(OC)cc(OC)c3c4c(OC)cc(OC)c5c(=O)c(OC)c(CCC)c(c1c23)c54 | inactive: 14.9 µM
CSc1s[s+]c(SC)c1-c1ccccc1 | inactive: 38.2 µM
COc1ccc(N(c2ccc(C#N)cc2)c2ccc(C#N)cc2)cc1 | inactive: 99.5 µM
O=C(/C=C/c1ccc(O)c([N+](=O)[O-])c1)CC(=O)/C=C/c1ccc(O)c([N+](=O)[O-])c1 | inactive: 40.9 µM
CCCCNC(=O)C1=C(C)NC(C)=C(C(=O)NCCCC)C1 | inactive: > 100 µM
O=c1c2ccccc2nc(N/N=C/c2ccccc2O)n1-c1ccccc1 | inactive: 6.05 µM
CC(CCC(=O)O)(c1ccc(O)cc1)c1ccc(O)cc1 | inactive: > 100 µM
COc1ccc(C[C@H]2COC(=O)[C@@H]2Cc2cccc(Br)c2)cc1OC | inactive: 54.7 µM
CCN(CC)CC[n+]1ccc2c(C)c3[nH]c4ccccc4c3c(C)c2c1 | active: 1.11 µM
COC(=O)c1cc2ccccc2c2nc3ccccc3c(Cl)c12 | inactive: > 100 µM

Structure (SMILES) | GI50
COc1cc2c(c(O)c1OC)C(O)C1CCC(=O)N1C2c1cccc2ccccc12 (configuration not stated) | inactive: > 100 µM
NC1=NCC(c2ccccn2)C1c1ccc(F)cc1 (configuration not stated) | inactive: > 100 µM
CCNC(C)(C)C(SS)c1ccc(Br)cc1 (configuration not stated) | inactive: > 100 µM
Cc1ccc(/N=N/C(=N/NC(=O)c2cc(Cl)ccc2C(=O)c2ccccc2)c2ccc(N(CCC#N)CCC#N)cc2C)cc1 | inactive: 16.8 µM
CON(C)C(=O)CCCO | inactive: > 100 µM
CCN(CC)CCn1ccc(=O)c2cc3c(=O)ccn(CCN(CC)CC)c3c(C)c21 | inactive: 4.65 µM
CCCCCCCCCCCCCCCCCc1cc(Cl)nc(Cl)n1 | inactive: > 100 µM
CSc1snc2sc3c(Cl)nnnc3c12 | inactive: 16.3 µM
COc1ccc(/C(=N/OCCCC(=O)O)c2cccs2)cc1 | inactive: > 100 µM
O=C1/C(=C/c2ccc(Br)s2)NC(=S)N1CN1CCOCC1 | inactive: > 100 µM
CNc1cc(Cl)ccc1C(=O)N1CCC[C@H]1CO | inactive: > 100 µM
COC(=O)Cc1ccc(Oc2nc3ccccc3nc2-c2cccs2)cc1 | inactive: > 100 µM
CN[C@@H](C)[C@@H](N)c1ccccc1 | inactive: > 100 µM
NC(=O)c1cc(C2OC(CO)C(O)C2O)nn1-c1ccc([N+](=O)[O-])cc1 (configuration not stated) | inactive: > 100 µM
Cc1ccc(Nc2nc3[nH]ccc3c(=O)[nH]2)cc1 | inactive: 58.1 µM
CCc1nc2ccc(C(F)(F)F)cc2[nH]c1=O | inactive: > 100 µM
COC/C=C\COC | inactive: > 100 µM
O=C1CC(C(CC(=O)c2ccccc2)c2ccccc2)C(=O)c2ccccc2N1 (configuration not stated) | inactive: 54.6 µM
CCOC(=O)CCn1[nH]c(=O)c(Cl)c(Cl)c1=O | inactive: > 100 µM
N#Cc1nc(-c2cc([N+](=O)[O-])cc([N+](=O)[O-])c2)oc1N | inactive: > 10 µM
COc1cccc2c1C(=O)c1c(O)c3c(c(O)c1C2=O)C[C@@](O)(C(=O)CO)C[C@@H]3OC1CC(N)CC(C)O1 (some centres not stated) | active: 0.0412 µM
Cc1cc2[nH]c3c(C#N)c(-c4ccccc4)c(/C=N/c4cccc(C(F)(F)F)c4)c(=O)n3c2cc1C | inactive: > 100 µM
Clc1ccc2c(c1)N(CCCN1CCCC13CCCCC3)c1ccccc1S2 | inactive: 18.8 µM
CCc1n[nH]c(=O)n1CCCCCCCCn1c(CC)n[nH]c1=O | inactive: > 100 µM
O=C1C(=Cc2ccccc2[N+](=O)[O-])N=C(c2ccccc2)N1n1c(-c2ccccc2)nc2ccccc2c1=O | inactive: 30.6 µM

Structure (SMILES) | GI50
CC1(C)CC2(S(=O)(=O)c3ccccc3)ON1CC2S(=O)(=O)c1ccccc1 (configuration not stated) | inactive: > 100 µM
CC1(C)CN=C(Nc2ccc(Cl)cc2)S1 | inactive: > 100 µM
Fc1cccc(C2SCc3nc4ccccc4n32)c1 (configuration not stated) | inactive: > 100 µM
Clc1ccccc1/C=C/c1ccnc2ccccc12 | inactive: 16.2 µM
C=CCCC(C)N(C(=O)OC(C)(C)C)S(=O)(=O)c1ccc(C)cc1 (configuration not stated) | inactive: > 100 µM
N#Cc1nc(-c2ccccc2O)oc1N | inactive: 92.5 µM
CN(Cc1cnc2nc(N)nc(N)c2n1)c1ccc(C(=O)NCS(=O)(=O)O)cc1 | inactive: > 100 µM
CCN1CCC(O)(/C=C/c2ccc(C(C)C)cc2)C(C(=O)/C=C/c2ccc(C(C)C)cc2)C1 (configuration not stated) | inactive: 3.78 µM
O=c1cc(CO)oc(C(O)c2ccccc2)c1O (configuration not stated) | inactive: > 100 µM
c1cc(C2N3CCCN2CC3)ccn1 (configuration not stated) | inactive: > 100 µM
COc1cccc(C(=O)Oc2ccc(OS(=O)(=O)c3ccc(C)cc3)cc2)c1C#N | inactive: 96.6 µM
O=C(/C=C/c1ccc(O)cc1)c1cc(Cl)ccc1O | inactive: 47.4 µM
CC1=C(C#N)C23C(=O)c4ccccc4C(=O)C2=C(O)C=CC3(O)N1 (configuration not stated) | inactive: 20.7 µM
C/C(CC(O)(/C=N/O)c1ccccc1)=N/O (configuration not stated) | inactive: 30 µM
Cc1ccc(S(=O)(=O)Nn2c(S)c(C#N)c(-c3ccc(Cl)cc3)c(C#N)c2=O)cc1 | inactive: 59.4 µM
O=[N+]([O-])/C=C\c1c[nH]c2ccc(OCc3ccccc3)cc12 | inactive: 15 µM
CN1CCN(C(=O)CCNC(=O)Cc2ccc(C(=O)c3ccccc3)cc2)CC1 | inactive: > 100 µM
O=P1(Oc2ccccc2)N(CCCl)CCN1c1ccccc1 (configuration not stated) | inactive: > 100 µM
C/C(=N/NC(=O)c1ccncc1)c1ccc(NC(=O)C(=O)Nn2c(S)nc3ccccc3c2=O)cc1 | inactive: > 100 µM
C1=CC2=CC=CC3c4nc5ccc6ccccc6c5nc4C(=C1)C23 (configuration not stated) | inactive: > 100 µM
[O-][S+]1Nc2cccc(C(F)(F)F)c2S1 (configuration not stated) | inactive: 52.7 µM
O=C(Cc1nc2ccc(C(=O)c3ccccc3)cc2nc1O)C(=O)Nc1ccccc1[N+](=O)[O-] | inactive: > 100 µM
COC(=O)C[C@H](CCSC)NC(=O)C[C@H](CCSC)NC(=O)C[C@H](CCSC)NC(=O)OC(C)(C)C | inactive: 30.2 µM
Oc1nc2ccccc2c(O)c1Cc1ccccc1 | inactive: > 100 µM
CC(=O)C(=[N+]=[N-])C(=O)N1CCOC1=O | inactive: > 10 µM

Structure (SMILES) | GI50
COc1ccc2c(NCCCCCCNc3c4ccccc4nc4cc(OC)ccc34)c3ccccc3nc2c1 | active: 0.0771 µM
COC(=O)C(C(=O)C(=O)Nc1c(C)cccc1C(C)(C)C)c1nc2ccc(Cl)cc2nc1O (configuration not stated) | inactive: > 100 µM
CCCN(CCC)C(=O)c1c(Cl)c2cccnc2n2c(C)cnc12 | inactive: > 100 µM
O=C1c2ccccc2C(=O)N1CCc1nc(-c2ccccc2)c[nH]1 | inactive: > 100 µM
O=C1N/C(=N/N=C/C(O)C(O)C(O)C(O)CO)N/C1=C\c1c[nH]c2ccccc12 (configuration not stated) | inactive: > 100 µM
O=c1[nH]c2cc3[nH]c4ncccc4c(=O)c3cc2[nH]1 | inactive: > 10 µM
COC(=O)C1Cc2cc3c(cc2C1=O)CCC3 (configuration not stated) | inactive: > 100 µM
CC(C)Oc1ccc2c(c1)OCC1Cc3ccccc3OC21 (configuration not stated) | inactive: > 100 µM
CO/N=C1/c2sccc2[C@H](NC(=O)C(Cc2ccccc2)NC(=O)OC(C)(C)C)[C@@H]1O (some centres not stated) | inactive: > 100 µM
C=C1C(=O)OC2/C=C(\C)C(=O)CC3OC(C)(C)OC3(C)CC(OC(=O)/C(C)=C/C)C12 (configuration not stated) | inactive: > 74.8 µM
CN1C(=O)C23CC4=CC=CC(O)C4N2C(=O)C1(CO)SS3 (configuration not stated) | active: 0.193 µM
O=S1(=O)c2ccccc2NC(c2ccc3ccccc3c2)CC1c1ccccc1F (configuration not stated) | inactive: > 100 µM
CN1C(=O)CC(c2cccc(C3CC(=O)N(C)C3=O)n2)C1=O (configuration not stated) | inactive: > 100 µM
O=C1c2ccccc2CCCCCCCCCCC12OCCCO2 | inactive: 63 µM
CC(=O)Nc1ccc(NS(=O)(=O)c2ccc3nc(C)n(NS(=O)(=O)c4ccc(NC(C)=O)cc4)c(=O)c3c2)cc1 | inactive: > 100 µM
COc1c(-c2ccc(F)cc2)oc2cc(O)cc(O)c2c1=O | inactive: 28.4 µM
CN(C)CCNC(=O)C(C)(C)Oc1ccc(C(=O)c2ccc(Cl)cc2)cc1Cl | inactive: 11.9 µM
O=CC1C(=O)Nc2nc3ccccc3n2C1c1ccccc1 (configuration not stated) | inactive: 16.1 µM
CCN1C2=NC(=O)N(C)C(=O)C2(Cl)C(C(SC)S(=O)(=O)c2ccc(C)cc2)c2ccccc21 (configuration not stated) | inactive: 86.3 µM
CCC1=[N+](CC)CCN1CC | inactive: > 100 µM
O=C1/C(=C/c2ccc(C(=O)O)cc2)CNC/C1=C\c1ccc(C(=O)O)cc1 | inactive: > 100 µM
NC(=O)c1ncn2c(=O)n(CCCl)nnc12 [MITOZOLOMIDE] | inactive: 205 µM

Reference: ChEMBL document CHEMBL1201862, “PubChem BioAssay data set” (2004)
